Screen size: about 310,000 compounds; about 14,000 (4.5%) showed an effect of 50% or more. The effect is printed as a negative number. This is one part of the list.
Each compound was assayed against human ether-à-go-go-related gene (hERG) potassium channel (human, UniProt Q12809) (assay: primary screen, population patch clamp on CHO cells stably expressing hERG).
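Note: peak tail current of the secondary pulse compared with the same well before compound.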

Sequence of human ether-à-go-go-related gene (hERG) potassium channel (Q12809 whole entry, looked up): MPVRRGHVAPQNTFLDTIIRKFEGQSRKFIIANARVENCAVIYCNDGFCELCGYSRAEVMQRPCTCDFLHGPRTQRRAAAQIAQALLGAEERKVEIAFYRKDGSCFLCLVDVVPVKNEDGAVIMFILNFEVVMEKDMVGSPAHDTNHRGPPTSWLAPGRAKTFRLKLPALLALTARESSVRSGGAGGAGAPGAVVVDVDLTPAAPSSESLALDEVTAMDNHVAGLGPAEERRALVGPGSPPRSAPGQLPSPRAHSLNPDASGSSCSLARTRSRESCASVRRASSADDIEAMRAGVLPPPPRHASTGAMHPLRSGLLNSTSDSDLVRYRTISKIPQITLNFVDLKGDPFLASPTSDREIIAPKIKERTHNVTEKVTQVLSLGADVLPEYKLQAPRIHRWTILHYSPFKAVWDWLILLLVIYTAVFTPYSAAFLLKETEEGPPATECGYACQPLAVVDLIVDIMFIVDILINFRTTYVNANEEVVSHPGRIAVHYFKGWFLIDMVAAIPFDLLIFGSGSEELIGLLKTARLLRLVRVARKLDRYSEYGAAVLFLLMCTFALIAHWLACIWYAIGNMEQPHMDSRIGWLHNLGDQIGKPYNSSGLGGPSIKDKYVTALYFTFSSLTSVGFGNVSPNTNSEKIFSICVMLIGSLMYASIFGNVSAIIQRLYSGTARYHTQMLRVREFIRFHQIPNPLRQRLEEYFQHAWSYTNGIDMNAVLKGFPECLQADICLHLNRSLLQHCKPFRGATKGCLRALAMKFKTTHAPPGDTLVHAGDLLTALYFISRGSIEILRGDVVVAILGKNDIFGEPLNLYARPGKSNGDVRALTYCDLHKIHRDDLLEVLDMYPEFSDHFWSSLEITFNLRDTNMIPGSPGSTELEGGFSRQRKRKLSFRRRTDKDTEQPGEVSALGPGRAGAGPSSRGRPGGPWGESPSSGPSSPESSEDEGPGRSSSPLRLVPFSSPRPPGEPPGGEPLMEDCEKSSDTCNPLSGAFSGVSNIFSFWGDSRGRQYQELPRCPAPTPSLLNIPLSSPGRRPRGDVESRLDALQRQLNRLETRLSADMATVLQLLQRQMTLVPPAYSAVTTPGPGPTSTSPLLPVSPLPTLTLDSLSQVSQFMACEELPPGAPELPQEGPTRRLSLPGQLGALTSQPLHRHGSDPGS

Compared with `CCN1CCN(C(=S)Nc2ccc3nc4n(c(=O)c3c2)CCCCC4)CC1`, `O=C(NC(=S)N1CCCC1)c1ccc(Cl)cc1Cl` is higher in “hERG current change (%, negative = inhibition) at 10uM” value: 1.83% for the first, 20% for the second.

Compared with `CC(C)CC(C)NNC(=O)c1cc2ccccc2[nH]1` (stereo not shown), `C=CCn1c(C(C)C)nc2ccccc21.Cl` is higher in “hERG current change (%, negative = inhibition) at 10uM” value: 0.614% for the first, 25.1% for the second.

Going from `COc1cc(CC(NC(C)=O)C(=O)NC2CCN(S(=O)(=O)c3ccc(NC(C)=O)cc3)CC2)cc(OC)c1` (stereo not shown) to `Cc1nnsc1C(=O)Nc1ccc(S(=O)(=O)N2CCCC(C)C2)cc1` (stereo not shown), the “hERG current change (%, negative = inhibition) at 10uM” value falls from 21.7% to 18.6%.

Going from `CCCS(=O)(=O)c1nc(S(=O)(=O)c2ccc(C)cc2)c(N2CCOCC2)s1` to `O=C(O)c1cccc(S(=O)(=O)Nc2ccc(S(=O)(=O)N3CCOCC3)cc2)c1`, the “hERG current change (%, negative = inhibition) at 10uM” value falls from 17.5% to 8.28%.

Going from `CCCSc1nc2c(cnn2-c2ccccc2)c(=O)[nH]1` to `Cc1nc2ccccc2c(=O)n1CCc1ccccc1`, the “hERG current change (%, negative = inhibition) at 10uM” value rises from -12.2% to 1.1%.

Going from `CCCC1CC(C#N)N(N(C)C)C1=C(C#N)C#N` (stereo not shown) to `COCC(=O)N1CCC(Oc2ccc(C(=O)N(C)C(C)c3ccon3)cc2)CC1` (stereo not shown), the “hERG current change (%, negative = inhibition) at 10uM” value rises from 0.118% to 14.6%.

Going from `CC(=O)NC(C)c1nc2ccccc2n1Cc1ccccc1F` (stereo not shown) to `COCc1nc2ccccc2n1Cc1c(F)cccc1Cl`, the “hERG current change (%, negative = inhibition) at 10uM” value rises from -12.8% to -12.7%.

Compared with `COc1ccc(C)cc1NC(=O)C1CCN(C(=O)Cc2ccccc2)CC1`, `COc1ccccc1NC(=O)c1ccc(CN2CCOCC2)cc1` is lower in “hERG current change (%, negative = inhibition) at 10uM” value: 8.85% for the first, 1.57% for the second.

Compared with `COc1ccc(Nc2ncc(F)c(N3CCOCC3)n2)cc1`, `COc1ccc(C2=NOC(CNC(=S)N3CCOCC3)C2)cc1` (stereo not shown) is lower in “hERG current change (%, negative = inhibition) at 10uM” value: 17.6% for the first, 1.08% for the second.

First: N#CCCN(NC1=NS(=O)(=O)c2ccccc21)C(=O)c1ccccc1Br
Second: O=C(COc1ccccc1-c1ccccc1)N/N=C/c1ccncc1
The “hERG current change (%, negative = inhibition) at 10uM” value of the first is higher: 7.17% for the first, -26.2% for the second.

Going from `O=C1COc2ccc(C(=O)NC3CC3)cc2N1` to `COc1ccc(C(=O)NCC(O)CN2CCOCC2)cc1[N+](=O)[O-]` (stereo not shown), the “hERG current change (%, negative = inhibition) at 10uM” value rises from 9.66% to 10.4%.

First: Cn1c(=O)c2c(nc(NCCO)n2CCCc2ccccc2)n(C)c1=O
Second: c1ccc(CCCN2CCOCC2)cc1
The “hERG current change (%, negative = inhibition) at 10uM” value of the first is lower: 8.23% for the first, 22.1% for the second.

`CNC(=O)COC(=O)c1c2c(nc3ccccc13)CCC2` and `COc1cc2c(cc1OC)CN(CC(=O)NC(=O)NCc1ccccc1)CC2` are the same in “hERG current change (%, negative = inhibition) at 10uM” value: -15.9% for the first, -15.9% for the second.

Compared with `COc1ccc(OC)c(-n2c(SCC(=O)Nc3cccc(S(N)(=O)=O)c3)nc3ccccc3c2=O)c1`, `COc1cc2c(cc1NC(=O)c1cc(-c3ccncc3)nc3ccccc13)oc1ccccc12` is higher in “hERG current change (%, negative = inhibition) at 10uM” value: -18.8% for the first, -14.9% for the second.

Going from `O=C(Nc1ccc(N2CCN(C(=O)c3cccs3)CC2)cc1)c1ccccc1Cl` to `COc1ccccc1C(=O)Oc1ccccc1C(=O)Nc1ccccc1`, the “hERG current change (%, negative = inhibition) at 10uM” value falls from 16.6% to 9.75%.

Compared with `CC1(C)Cc2c(cnn2-c2ccc(F)cc2)C(NC(=O)CCN2CCCC2=O)C1` (stereo not shown), `Cc1ccc(-n2ncc3c(=O)n(CC(=O)N(C(C)C)C(C)C)cnc32)cc1` is higher in “hERG current change (%, negative = inhibition) at 10uM” value: 5.01% for the first, 14.4% for the second.

Compared with `CCOc1ccc(/C=N/Nc2nc(=O)[nH]nc2C)cc1OC`, `Cc1n[nH]c(C)c1CCC(=O)N/N=C/c1cccc([N+](=O)[O-])c1` is higher in “hERG current change (%, negative = inhibition) at 10uM” value: -27% for the first, 14.8% for the second.

First: Cc1ccc(-n2c(O)c(/C=N/NC(=O)C3COc4ccccc4O3)c3ccccc3c2=O)cc1 (stereo not shown)
Second: O=c1oc2ccccc2c(Nc2cc3ccccc3cc2O)c1[N+](=O)[O-]
The “hERG current change (%, negative = inhibition) at 10uM” value of the first is lower: -8.71% for the first, 3.95% for the second.

Going from `CCCCn1c(CCn2nc(C)c(Br)c2C)n[nH]c1=S` to `CCCCC1(CCCC)NC(=S)N(Nc2ccc(C)cc2)C1=O`, the “hERG current change (%, negative = inhibition) at 10uM” value rises from 7.63% to 10.7%.

Going from `O=S(=O)(Nc1ccc(Oc2ncccn2)c(Cl)c1)c1ccc(Cl)cc1` to `O=S(=O)(Nc1cccc(-c2nnco2)c1)c1ccc(Cl)cc1`, the “hERG current change (%, negative = inhibition) at 10uM” value rises from -9.75% to -3.31%.

First: CC(C(=O)NN)c1ccc([N+](=O)[O-])cc1 (stereo not shown)
Second: Cc1ccc(N2C(=O)N(CC(=O)Nc3ccc(C)cc3[N+](=O)[O-])C(=O)C2C)cc1 (stereo not shown)
The “hERG current change (%, negative = inhibition) at 10uM” value of the first is lower: 2.22% for the first, 3.52% for the second.

First: CCOC(=O)C(C#N)C(c1cccnc1)c1c(C)[nH][nH]c1=O (stereo not shown)
Second: CCCCCN(C(=O)CCC(=O)OCc1cccc(Cl)c1)c1c(N)n(CCCC)c(=O)[nH]c1=O
The “hERG current change (%, negative = inhibition) at 10uM” value of the first is higher: 17.4% for the first, 8.16% for the second.

First: CCCc1sc(N2CCCC(C(N)=O)C2)nc1-c1ccccc1 (stereo not shown)
Second: c1ccc(N2CCN(c3ncnc4sc5c(c34)CCC5)CC2)cc1
The “hERG current change (%, negative = inhibition) at 10uM” value of the first is lower: -12.9% for the first, 12.4% for the second.

Going from `O=S(=O)(Cc1cc(Sc2ccc(Cl)cc2)nc(-c2ccccc2)n1)c1ccccc1` to `NNC(=O)CN1C(c2ccc(Cl)cc2)=Nc2ccc(Br)cc2C1c1ccccc1` (stereo not shown), the “hERG current change (%, negative = inhibition) at 10uM” value falls from 0.42% to -53.3%.

Compared with `Cc1ccc(S(=O)(=O)c2c(C)nn(C(C)(C)C)c2OC(=O)C(C)(C)C)cc1`, `Cc1cc(-c2ccccc2)nc(Oc2ccc(C(C)(C)C)cc2)c1S(C)(=O)=O` is lower in “hERG current change (%, negative = inhibition) at 10uM” value: 15.6% for the first, 9.4% for the second.

Compared with `C=CCN1C(=O)NC(=O)/C(=C/c2ccc(OC)c(COc3ccc(NC(C)=O)cc3)c2)C1=O`, `C=CCN1C(=O)c2ccc(C(=O)N3CCN(c4ccccc4OC)CC3)cc2C1=O` is lower in “hERG current change (%, negative = inhibition) at 10uM” value: 8.75% for the first, 0.00618% for the second.

First: C=CCc1ccc(O)c(-c2cc(CC=C)ccc2O)c1
Second: O=C(NCCc1ccc(Cl)cc1)c1cnccn1
The “hERG current change (%, negative = inhibition) at 10uM” value of the first is higher: 10.4% for the first, 3.46% for the second.

First: COc1c(C)cc(C(=O)C2CCCN(C(=O)Cn3ccc(C)n3)C2)cc1C (stereo not shown)
Second: COc1ccc(S(=O)(=O)N2CCCCC2)cc1NC(=S)Nc1cccc(Cl)c1C
The “hERG current change (%, negative = inhibition) at 10uM” value of the first is lower: -8.89% for the first, -0.424% for the second.

Compared with `Nc1c(C(=O)C2CC2)sc2nc3c(cc12)CCC3`, `CCOc1ccc2nc(NC(=O)Cc3cccs3)sc2c1` is lower in “hERG current change (%, negative = inhibition) at 10uM” value: 8.73% for the first, 0.978% for the second.

Compared with `Cn1nc(C(C)(C)C)c([N+](=O)[O-])c1C(N)=O`, `CCn1cc(S(=O)(=O)Nc2cc(C)ccc2F)cn1` is lower in “hERG current change (%, negative = inhibition) at 10uM” value: 12.4% for the first, 3.63% for the second.

Going from `CC1CC(C)CN(CCOCCSc2ccc(Cl)cc2)C1.O=C(O)C(=O)O` (stereo not shown) to `COc1ccc2c(c1)c(CC(=O)OCC(=O)O)c(C)n2C(=O)c1ccc(Cl)cc1`, the “hERG current change (%, negative = inhibition) at 10uM” value rises from -72.4% to -7.76%.

First: O=C(NCc1cccc2ccsc12)c1cccs1
Second: O=C(N/N=C/c1ccncc1)c1ccc(COc2cccc3cccnc23)cc1
The “hERG current change (%, negative = inhibition) at 10uM” value of the first is higher: -0.882% for the first, -45.6% for the second.

Going from `O=C(Nc1ccccc1O)C(c1ccccc1)c1ccccc1` to `CCOc1ccc(N(CC(=O)NCCOc2ccccc2OC)S(=O)(=O)c2ccccc2)cc1`, the “hERG current change (%, negative = inhibition) at 10uM” value falls from -18.6% to -21.2%.

First: COc1ccc(NC(=O)CN(C)C(=O)CCNC(=O)c2ccccc2OC)cc1
Second: COc1ccc(NC(C)=O)cc1S(=O)(=O)NCCc1ccccn1
The “hERG current change (%, negative = inhibition) at 10uM” value of the first is higher: 7.38% for the first, -2.22% for the second.

Compared with `O=c1[nH]c(C2CCN(S(=O)(=O)c3ccccc3C(F)(F)F)CC2)nc2c1nnn2Cc1ccccc1`, `COc1ccccc1NC(=O)CN1C(=O)COc2ccc(S(=O)(=O)N3CCCCCC3)cc21` is higher in “hERG current change (%, negative = inhibition) at 10uM” value: -30.1% for the first, 18.9% for the second.

Compared with `CC(=O)/C(N=Nc1ccc(C(=O)O)cc1)=C(\C)O`, `CCCOc1ccc(NC(=O)OC2CCN(C)CC2)cc1.O=C(O)/C=C/C(=O)O` is lower in “hERG current change (%, negative = inhibition) at 10uM” value: -5.56% for the first, -17.8% for the second.

Going from `O=C(CCSCc1cccc(Cl)c1)NCCC1=CCCCC1` to `CC(OC(=O)Cc1c(F)cccc1Cl)C(=O)NC1(C#N)CCCCC1` (stereo not shown), the “hERG current change (%, negative = inhibition) at 10uM” value falls from -13% to -22.4%.

Going from `Oc1c(Cl)cc(Cl)cc1C(C#Cc1ccccc1)N1CCOCC1` (stereo not shown) to `O=C(O)c1cc(-n2nnnc2SCc2ccccc2F)ccc1Cl`, the “hERG current change (%, negative = inhibition) at 10uM” value rises from -8.47% to 22.2%.

Compared with `C[n+]1c(/C=C/c2ccc3c(c2)OCO3)ccc2ccccc21.[I-]`, `CCCCCOc1ccc(NC(=O)CSc2cccc3cccnc23)cc1` is lower in “hERG current change (%, negative = inhibition) at 10uM” value: 25.7% for the first, 18.8% for the second.

Going from `Cc1noc(C)c1COc1cccc(C(=O)OCC(=O)NCCN2C(=O)CSC2=O)c1` to `COc1cc(/C=C/C(=O)OCC(=O)NC2CCS(=O)(=O)C2)ccc1O` (stereo not shown), the “hERG current change (%, negative = inhibition) at 10uM” value rises from -3.17% to 4.99%.

Compared with `CC(C)CCc1noc(CN2CCC(C(=O)N3CCOCC3)CC2)n1`, `Clc1cccc2c1CCN(Cc1nc(-c3cnccn3)no1)C2` is lower in “hERG current change (%, negative = inhibition) at 10uM” value: -6.13% for the first, -8.25% for the second.

First: C[C@H]1CCC[C@@]2(O[C@H](CCO)C[C@@H](O)[C@@H]2O)O1
Second: NC1=NC[C@@H](Cc2ccc(O)cc2)N1CCC12CC3CC(CC(C3)C1)C2
The “hERG current change (%, negative = inhibition) at 10uM” value of the first is higher: 22.1% for the first, -9.99% for the second.

First: CC(C)Oc1ccc(C2(C#N)CC[N+](C)(C)CC2)cc1.[Br-]
Second: CC(C)C1Cc2c(C#N)c(N)sc(=S)c2CO1 (stereo not shown)
The “hERG current change (%, negative = inhibition) at 10uM” value of the first is higher: -3.81% for the first, -6.09% for the second.

First: Cc1ccc2nsnc2c1S(=O)(=O)Nc1ccccc1C(=O)O
Second: CC(=O)OC1C([N+]2(C)CCCCC2)C[C@H]2C3CC[C@H]4C[C@H](OC(C)=O)C([N+]5(C)CCCCC5)CC4(C)[C@H]3CCC12C.[Br-] (stereo partly shown)
The “hERG current change (%, negative = inhibition) at 10uM” value of the first is lower: -7.06% for the first, 12.1% for the second.

Reference: paper PMC4336329 (PLoS ONE, 2015)
